Source: PubChem BioAssay AID1963576 (National Center for Advancing Translational Sciences (NCATS), 2024)
Screen size: about 46,000 compounds; about 60 (0.1%) were called active. Another 3% or so got no clear call; they are omitted. Calls come from the whole dose curve; as a rule, active = well fitted inhibition curve with a large enough effect; inconclusive = small, poorly fitted or top-dose-only effect; inactive = no such curve, though single readings can be large or run the other way. This is one part of the list.

assay: Primary qHTS assay for Inhibitors of ovarian cancer metastasis using an organotypic tumor microenvironment (TME) model.; note: nearly all actives have a fitted effect of over 65% in size;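 for activity change, negative = inhibition: plate controls were DMSO wells for no effect and tomatine positive control wells for full effect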; details: SKOV3ip1-GFP adhesion/invasion on 3D omental model, fluorescence; series mostly up to 45.8 µM; activity change, negative = inhibition: at the top concentration
Method in brief: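 A 3D layer of primary human omental fibroblasts, mesothelial cells, fibronectin and collagen I, grown 48 hr, received SKOV3ip1-GFP cells in serum-free medium plus compounds at 0.36-46 umol/L. After 2 hr RT and 16 hr 37 C, fixed adherent GFP cells were counted; normalized to DMSO and tomatine.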

Activity change, negative = inhibition, inactive:
N#C/C(=C\c1ccccc1)C(=O)Nc1sc2c(c1C(N)=O)CCC2 -15.4%, Cn1cnc(S(=O)(=O)N2CCC(C(=O)N3CCN(c4ccc(Cl)cc4)CC3)CC2)c1 -3.02%, CCc1ccccc1NC(=O)C1COc2ccccc2C1 (stereo unspecified) 9.59%, COc1ccc(S(=O)(=O)NCc2ccc3c(c2)CCN3C(=O)c2ccc(C)cc2)cc1Cl -0.811%, COc1ccc(CCn2c(=O)c3cccnc3n(CC(=O)Nc3cccc(C)c3)c2=O)cc1OC 2.55%, Cc1cc2nc(-c3ccc(Br)cc3)cc(C(F)(F)F)n2n1 6.03%, Cn1cc(-c2cc3n(n2)CCC(=O)N3CCCC(=O)Nc2ccc(F)cc2F)c2ccccc21 0.658%, CC(=O)N(Cc1cccnc1)c1nc2c(C)cccc2s1 6.74%, Cc1ccc2nc(NS(=O)(=O)c3ccc(Cl)cc3)c(Nc3ccc(C(=O)O)cc3)nc2c1 -0.138%, Cc1nnc2c(N3CCN(c4ccccc4)CC3)nc3ccc(C(=O)c4ccccc4)cc3n12 6.8%, CCc1ccc(N2CCn3c2nc2c3c(=O)n(Cc3c(F)cccc3Cl)c(=O)n2C)cc1 -7.76%, CCc1ccc(-c2cn3c(n2)sc2cc(C(=O)NCC(C)c4ccccc4)ccc23)cc1 (stereo unspecified) -8.64%, Cn1c(=O)c2sccc2n2c(CCC(=O)N3CCN(c4cccc(Cl)c4)CC3)nnc12 7.42%, CCOc1ccc(/C=C(\C#N)C(=O)Nc2sc3c(c2C(=O)OC)C(C(=O)OC)CC3)cc1OC (stereo unspecified) -3.45%, Cc1c(CNCCc2ccc(S(N)(=O)=O)cc2)c(C(=O)O)c(C)n1Cc1ccc(Cl)cc1 10%, CN(C(=O)CSc1nc2ccccc2n1CC(=O)N(C)c1ccc(F)cc1)c1ccccc1 7.35%, CCOc1ccc(Nc2oc(-c3ccc(COc4ccccc4C)o3)nc2C#N)cc1 0.648%, Cc1nc(-c2cccc(F)c2)sc1CCNC(=O)c1ccc(F)c(F)c1 -13.4%, CCN(c1ccccc1)S(=O)(=O)c1ccc(F)c(C(=O)Nc2ccc(C)cc2)c1 -1.22%, COc1ccc(CNCCSc2nnnn2-c2ccccc2)c(OC)c1 -12.7%, COc1ccc(N2CCN(C(=O)C3CCN(S(=O)(=O)Cc4ccccc4)CC3)CC2)cc1 3.93%, Cc1ccc(C)c(S(=O)(=O)NCC(c2ccco2)S(=O)(=O)c2ccc(F)cc2)c1 (stereo unspecified) 0.579%, Cc1cccc(N2CCN(c3nc4ccccc4c(=O)n3-c3ccc(Cl)cc3)CC2)c1C -0.716%, CCOc1ccc(C(=O)Nc2ccc(S(=O)(=O)N3CCCCC3c3cccnc3)cc2)cc1 (stereo unspecified) -15.3%, COc1ccccc1-c1ccnc2[nH]n(-c3ccccc3)c(=O)c12 20.2%, CCOc1ccc(C2C(=O)N(C3CCCCCC3)CC(=O)N2CCc2ccccc2)cc1OC (stereo unspecified) 4.92%, CCOc1ccc(CCNC(=O)c2cnc3sc(N4CCOCC4)nn3c2=O)cc1 7.71%, CCC1CCCCN1C(=O)c1nn(-c2ccc(C)cc2)c(=O)c2c1c1ccccc1n2C (stereo unspecified) -0.955%, O=C(Nc1c(-c2ccccc2)nc2ccccn12)c1ccc(Br)cc1 -5.85%, O=C(NCc1cccs1)C1CCN(C(=O)N2CCOc3ccccc32)CC1 -12.9%, O=C(Nc1ccc(F)cc1F)c1c2c(nc3ccccc13)C(=O)N(C1CCCCC1)C2 8.79%, Cc1noc(C)c1S(=O)(=O)N(CC(=O)NCc1ccccc1Cl)c1ccc(C(C)C)cc1 9.75%, Cc1ccc(N2CCN(C(=O)c3ccc4c(Cl)c5c(nc4c3)CCCC5)CC2)c(C)c1 79.7%, COc1ccc(C2C(=O)N(C3CCCCC3)CC(=O)N2Cc2ccccc2Cl)cc1OC (stereo unspecified) 6.21%, COc1ccc(-c2nn(CC(=O)Nc3ccccc3F)c3c2cnc2ccc(F)cc23)cc1 2.79%, Cc1ccc(N(CC(=O)N2CCN(c3ccc(Cl)cc3)CC2)S(=O)(=O)c2c(C)noc2C)cc1 -11.3%, CCOC(=O)c1cc(OC(=O)c2ccc(Cl)cc2)n(-c2ccccc2)n1 9.46%, Cc1ccc(C)c(N2CCN(CCCNC(=O)Cn3ncc4c([nH]c5ccccc54)c3=O)CC2)c1 1.33%, COc1ccc(CNC(=O)Cn2ncn3nc(-c4cccs4)cc3c2=O)cc1 -14.4%, CCOC(=O)c1ccc(NC(=O)CCS(=O)(=O)c2ccc3c(c2)oc(=O)n3C)cc1 1.24%, CC(=O)NCCC(=O)N[C@@H](CCC(N)=O)C(=O)N[C@@H](CO)C(=O)N[C@@H](CCC(N)=O)C(=O)N[C@@H](CCC(N)=O)C(=O)N[C@H](C(=O)N[C@@H](Cc1ccccc1)C(=O)N[C@]1(C)CCCCCCC=CCCC[C@@](C)(C(=O)N[C@@H](CCC(N)=O)C(=O)N[C@@H](CC(N)=O)C(N)=O)NC(=O)[C@H](CC(C)C)NC(=O)[C@H](CC(C)C)NC(=O)[C@@H](CCCNC(=N)N)NC(=O)[C@H](Cc2c[nH]c3ccccc23)NC(=O)[C@H](CC(C)C)NC(=O)[C@H](CC(N)=O)NC1=O)[C@H](C)O -5.02%, CCCCCn1c(=O)[nH]c2cc(C(=O)NCc3ccc(OC)cc3)ccc2c1=O -6.15%, Nc1ncnc2ccccc12 1.74%, Cc1ccc(Cl)cc1N1CCN(S(=O)(=O)c2ccc3[nH]c4c(c3c2)CCCC4)CC1 0.646%, CCc1ccc(NC(=O)C(CC)n2nnc(C(=O)OC)c2C(=O)OC)cc1 (stereo unspecified) 7.35%, CCOc1ccc(-n2nc3cc(C)c(NC(=O)CC)cc3n2)cc1 6.59%, CCCNc1nc(NCc2ccccc2OC)c2cnn(C)c2n1 -11.5%, COc1ccc(C2NC(=O)c3c(sc4c3CCN(C)C4)N2)cc1O (stereo unspecified) 0.414%, Cc1cccc(CN2C(=O)CC(c3ccc(Cl)cc3)c3c(C)nn(-c4nc(C)cc(C)n4)c32)c1 (stereo unspecified) 0.328%, CCCCN(CCCC)CCNC(=O)CN1C(=O)CSc2ccc(S(=O)(=O)N3CCCCC3)cc21 6.6%, COc1ccccc1N(CC(=O)Nc1ccccc1F)S(C)(=O)=O 7.8%, CCOc1ccccc1CNC(=O)c1cnc2sc(N3CCCC3)nn2c1=O 7.02%, CCC(CO)Nc1ncnc2c1cnn2-c1ccc(C)cc1 (stereo unspecified) -0.0887%, Cc1ccc(NC(=O)N2CCN(c3nnc(C)c4c(C)n(-c5ccccc5)nc34)CC2)cc1Cl 1.61%, CCCN1C(=O)c2ccccc2CC1(C)C(=O)NC1CCCCC1 (stereo unspecified) 10.1%, Cc1ccc(Cl)cc1Nc1nn2c(=O)c3ccc(C(=O)NCc4cccs4)cc3nc2s1 -6.52%, CCOCCc1nn2c(=O)cc(COC(=O)c3cccs3)nc2s1 -8.7%, CCOc1ccc(-c2cc(NC(=O)c3ccc(C)cc3)c(C(=O)OC)s2)cc1 -2.05%, CCCC(=O)C1=C(c2ccc(C)c(C)c2)N(C(=O)CCC)n2c(CC)nnc2S1 -10.1%, Cn1cnc2c1c(=O)[nH]c(=O)n2C -5.16%, CC(C)c1ccc(NS(=O)(=O)c2ccc3[nH]cc(C(=O)N4CCCC4)c(=O)c3c2)cc1 -1.64%, COc1ccc(OC)c(CNC(=O)CCCn2nc(C)c3c(C)n(-c4ccc(C)cc4)nc3c2=O)c1 -0.563%

outcome, inactive:
CCCn1c(=O)c2sccc2n2c(CCCC(=O)N3CCN(c4cccc(C)c4C)CC3)nnc12, Cc1ccc(NC(=O)CSc2nc3c(oc4ccccc43)c(=O)n2Cc2ccco2)cc1, CCOC(=O)C1CCN(C(=O)Cn2nc(C)n3c(cc4cc(C)ccc43)c2=O)CC1, Cc1cc(C)cc(-n2ccnc2SCC(=O)Nc2ccc3c(c2)OCO3)c1, Cc1nc2c(C(=O)NCCc3ccc(Cl)cc3)c[nH]n2c(=O)c1Cc1ccccc1F, CCc1ccc(NS(=O)(=O)c2ccc(C(=O)N(C)C)s2)cc1, O=C(C1CC1)N1CCc2cc(Br)cc(S(=O)(=O)N3CCN(c4ccccc4)CC3)c21, CCCCC(=O)Nc1nnc(S(=O)(=O)N(CC)c2cc(C)cc(C)c2)s1, Cc1ccc(CNC(=O)CN2C(=O)C3(SCC(=O)N3c3cc(C)cc(C)c3)c3ccccc32)cc1 (stereo unspecified), O=C(CSc1nccn1Cc1ccc(F)cc1)Nc1ccc2c(c1)OCO2, CCc1cccc(C)c1NC(=O)Cn1c(=O)cc(C(F)(F)F)c2c(C)nn(C)c21, COc1ccc(Cn2ccnc2SCC(=O)NCc2ccccc2)cc1, COc1ccc(N2CCN(S(=O)(=O)CCNC(=O)c3ccc(C(F)(F)F)cc3)CC2)cc1, Cc1ccc(-c2nc(S(=O)(=O)c3ccc(C)cc3)c(N3CCN(c4ccccc4)CC3)o2)cc1, COc1ccc(CN2COc3ccc4c(-c5ccc(OC)cc5)cc(=O)oc4c3C2)cc1, Cc1cccc(N2CCN(C(=O)C3CCN(S(=O)(=O)c4cn(C)cn4)CC3)CC2)c1C, COc1ccccc1NC(=O)CN1C(=O)c2cccc3cccc1c23, CCN(CCCNC(=O)c1cc2c(=O)[nH]c3ccc(C)cc3c2s1)c1ccc(C)cc1, CCOCCCn1c(SCC(=O)Nc2cccc(OC)c2)nc2ccccc2c1=O, COc1ccccc1NC(=O)C1CCN(S(=O)(=O)c2ccc3c(c2)oc(=O)n3C)CC1, CCN(c1ccc(Cl)cc1)S(=O)(=O)c1nnc(NC(=O)C2CCCCC2)s1, Cc1ccc2nc(N(Cc3cccnc3)C(=O)c3ccc4c(c3)OCCO4)sc2c1, O=C(NCc1ccc2c(c1)OCO2)c1ccc2c(c1)N(Cc1ccc(F)cc1)C(=O)c1ccccc1S2=O (stereo unspecified), COc1ccc2c(c1)-c1nc(NC(=O)c3ccc(C)cc3)sc1CC2, Cc1cc(C)cc(-n2c(SCC(=O)NCC3CCCO3)nc3c([nH]c4ccccc43)c2=O)c1 (stereo unspecified), COc1ccc(-c2noc(-c3ccc(NCCc4ccccc4)c([N+](=O)[O-])c3)n2)cc1OC, CC1CCN(C(=O)c2cc(-c3cccc(Cl)c3)on2)CC1, CCn1ccc2cc(S(=O)(=O)N3CCCN(C(=O)Nc4cc(Cl)ccc4C)CC3)ccc21, O=C(Cn1ncc2c3ccccc3n(Cc3ccccc3)c2c1=O)Nc1ccccc1C(F)(F)F
